Results taken from the supplement of paper PMC9135407.
“And” between values parts separate entries of the source, which are not always exact repeats. Equal entries are not always repeated. Structures can show the parent of a compound that is named as a salt. Screen size: about 5,800 compounds; about 620 (11%) showed activity.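 How the source made its calls: active = score above a cut-off or among the top three wells of a plate; in these data no inactive exceeds 0.85.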 The entries are a selection whose mix differs from that of the whole data set.

Tested on: primary human hepatic stellate cells (donor 1)
Assay: scaled lipid accumulation score (0 = DMSO-like, 1 = nortriptyline-like); higher = stronger HSC inactivation (lipid re-accumulation), active = hit call of the paper
Conditions: 48 h
Protocol: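 Primary lipid accumulation screen in primary human hepatic stellate cell myofibroblasts (donor 1, passage 8) in 384-well plates. 100 nL of library compound was pin-transferred into 30 µL medium in duplicate, and cells were treated for 48 h. The 'Scaled' score combines distance from plate baseline, toxicity and reproducibility penalties, and is normalised to nortriptyline (positive) and DMSO (negative) controls on each plate. A hit is defined as scaled >0.85 or among the top 3 wells per plate.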

[1] = library stock concentration: 10 mM
[2] = library stock concentration: 3.33 mM
[3] = library stock concentration: 1 mM
[4] = library stock concentration: 5.3 mM

SMILES: COc1ccc(-c2ccc(=N)n(CCCC(=O)O)n2)cc1
- scaled lipid accumulation score [1]: inactive: ≤ 0 and inactive: ≤ -0.002

SMILES: COc1ccc(-c2ccc(=N)n(CCCC(=O)O)n2)cc1 [Gabazine]
- scaled lipid accumulation score: inactive: 0.002

SMILES: Cc1cc(C(=O)NNCc2ccccc2)no1 [Isocarboxazid]
- scaled lipid accumulation score: inactive: ≤ 0

SMILES: COc1ccc(C(=O)Nc2sc3c(c2C(N)=O)CCCC3)cc1OC
- scaled lipid accumulation score [2]: inactive: 0.765
- scaled lipid accumulation score [1]: inactive: 0.808 and inactive: 0.676

SMILES: N[C@@H](Cn1ccc(=O)c(O)c1)C(=O)O [L-Mimosine from Koa hoale seeds]
- scaled lipid accumulation score [1]: inactive: ≤ 0

SMILES: COC(=O)[C@H](Cc1ccccc1)NC(=O)/C=C/c1ccc(O)cc1
- scaled lipid accumulation score [3]: inactive: 0.011

SMILES: CN(C)CC/C=C1\c2ccccc2CSc2ccccc21 [Dosulepin hydrochloride]
- scaled lipid accumulation score: inactive: 0.845

SMILES: CC(=O)NO [Acetohydroxamic acid]
- scaled lipid accumulation score [1]: inactive: ≤ 0

SMILES: O=NO [Sodium Nitrite]
- scaled lipid accumulation score [2]: inactive: ≤ 0
- scaled lipid accumulation score [1]: inactive: ≤ -0.001

SMILES: CC(C)(Oc1ccc(Cl)cc1)C(=O)O [Clofibric acid]
- scaled lipid accumulation score: inactive: ≤ 0
- scaled lipid accumulation score [1]: inactive: ≤ 0

SMILES: CC(C)(Oc1ccc(Cl)cc1)C(=O)O [Clofibric Acid]
- scaled lipid accumulation score [2]: inactive: ≤ 0
- scaled lipid accumulation score [1]: inactive: ≤ -0.001

SMILES: CN1CCCN=C1COC(=O)C(O)(c1ccccc1)C1CCCCC1 (configuration not stated) [Oxyphencyclimine hydrochloride]
- scaled lipid accumulation score [4]: inactive: ≤ 0
- scaled lipid accumulation score [1]: inactive: 0.458

SMILES: CCCCc1c(-c2ccc(OC)cc2)[nH]c2nccnc12 [Aloisine, RP106]
- scaled lipid accumulation score [2]: inactive: 0.036

SMILES: CC(=O)c1cnc2ccc(-c3cc(Cl)c(O)c(Cl)c3)nc2c1N[C@H]1CC[C@H](CN(C)C)CC1.Cl
- scaled lipid accumulation score [1]: active: 0.872

SMILES: COc1cc2ncc(-c3ccccc3)nc2cc1OC
- scaled lipid accumulation score [2]: inactive: ≤ 0
- scaled lipid accumulation score (library stock concentration: 18.8 mM): inactive: 0.096

SMILES: COc1cc2ncc(-c3ccccc3)nc2cc1OC [Tyrphostin AG 1296]
- scaled lipid accumulation score [2]: inactive: ≤ -0.009
- scaled lipid accumulation score [1]: inactive: ≤ 0

SMILES: CCC[C@H](Nc1nc(-c2ccc(NC(=O)NCC)c(OC)c2)ncc1C)c1cccnc1 [CYT997 (Lexibulin)]
- scaled lipid accumulation score [2]: inactive: 0.682
- scaled lipid accumulation score [1]: inactive: 0.758

SMILES: COC1C(O)CC(=O)OC(C)CC=CC=CC(OC2CCC(N(C)C)C(C)O2)C(C)CC(CC=O)C1OC1OC(C)C(OC2CC(C)(O)C(O)C(C)O2)C(N(C)C)C1O (configuration not stated) [Spiramycin]
- scaled lipid accumulation score [2]: inactive: ≤ 0
- scaled lipid accumulation score [1]: inactive: 0.344

SMILES: CCCCC[C@H](O)/C=C/[C@H]1[C@H](O)CC(=O)[C@@H]1C/C=C\CCCC(=O)NCCO [Prostaglandin E2 Ethanolamide]
- scaled lipid accumulation score [3]: inactive: ≤ 0

SMILES: CCCCCCCCCC(=O)NC(CN1CCOCC1)C(O)c1ccccc1 (racemic)
- scaled lipid accumulation score [3]: inactive: ≤ -0.021

SMILES: CN1CCc2ccccc2Cc2[nH]c3ccccc3c2CC1
- scaled lipid accumulation score [1]: inactive: 0.244

SMILES: CC(C)(Sc1cc(C(C)(C)C)c(O)c(C(C)(C)C)c1)Sc1cc(C(C)(C)C)c(O)c(C(C)(C)C)c1 [Probucol]
- scaled lipid accumulation score: inactive: ≤ 0
- scaled lipid accumulation score [2]: inactive: ≤ 0
- scaled lipid accumulation score [1]: inactive: ≤ 0

SMILES: COC(=O)c1sccc1S(=O)(=O)Nc1ccc(Nc2ccccc2)cc1OC
- scaled lipid accumulation score [1]: inactive: ≤ -0.001

SMILES: CCCCCC#CCC#CCCCCCCCC(=O)O [9,12-Octadecadiynoic Acid]
- scaled lipid accumulation score [3]: inactive: 0.001

SMILES: Nc1ccc(-c2nc3ccc(-c4nc5ccc(N)cc5[nH]4)cc3[nH]2)cc1
- scaled lipid accumulation score [1]: inactive: 0.536 and inactive: 0.097

SMILES: CS(=O)(=O)CCNCc1ccc(-c2ccc3ncnc(Nc4ccc(OCc5cccc(F)c5)c(Cl)c4)c3c2)o1
- scaled lipid accumulation score (library stock concentration: 80 uM): inactive: ≤ 0
- scaled lipid accumulation score (library stock concentration: 400 uM): inactive: ≤ 0 and inactive: 0.144
- scaled lipid accumulation score (library stock concentration: 2 mM): inactive: 0.42
- scaled lipid accumulation score [1]: inactive: 0.429

SMILES: Nc1c(Br)cc(Br)cc1CN[C@H]1CC[C@H](O)CC1 [Ambroxol HCl]
- scaled lipid accumulation score [2]: inactive: ≤ 0
- scaled lipid accumulation score [1]: inactive: 0.443

SMILES: Nc1c(Br)cc(Br)cc1CN[C@H]1CC[C@H](O)CC1 [Ambroxol hydrochloride]
- scaled lipid accumulation score: inactive: 0.147
- scaled lipid accumulation score [1]: inactive: ≤ -0.027 and inactive: 0.435

SMILES: Nc1c(Br)cc(Br)cc1CN[C@H]1CC[C@H](O)CC1 [Ambroxol]
- scaled lipid accumulation score [4]: inactive: 0.172

SMILES: Oc1ccc(Cl)c2cccnc12 [Cloxyquin]
- scaled lipid accumulation score [1]: inactive: ≤ 0

SMILES: OCCN1CCN(CCCN2c3ccccc3Sc3ccc(Cl)cc32)CC1 [Perphenazine]
- scaled lipid accumulation score [1]: active: 0.916

SMILES: CCC(=O)c1ccc(O)cc1
- scaled lipid accumulation score [1]: inactive: ≤ 0

SMILES: CC(=O)NCCc1c[nH]c2ccc(O)cc12 [N-Acetyl-5-hydroxytryptamine]
- scaled lipid accumulation score [1]: inactive: 0.055

SMILES: CC(C)Oc1ccc(Cc2ccc(NC3=NCCN3)cc2)cc1
- scaled lipid accumulation score [3]: inactive: 0.221

SMILES: O.O.O.O.O=C([O-])CC(O)(CC(=O)[O-])C(=O)[O-].[Li+].[Li+].[Li+] [Lithium citrate]
- scaled lipid accumulation score (library stock concentration: 9.5 mM): inactive: ≤ 0
- scaled lipid accumulation score [1]: inactive: 0.016
